Over roughly 33,000 sequences, “E-score (-0.5 to 0.5)” has its median near -0.041; the highest 2% begin near 0.37. Some of the results follow.
Each sequence was assayed against T1, Ecm22 (UniProt Q05958) (assay: PBM E-score (8-mer binding enrichment) (E-score (-0.5 to 0.5)); higher = stronger / more preferred TF binding; most listed sequences are background and not binding sites). Conditions: protein concentration: 200 nM; construct: GST-full length.
T1 sequence: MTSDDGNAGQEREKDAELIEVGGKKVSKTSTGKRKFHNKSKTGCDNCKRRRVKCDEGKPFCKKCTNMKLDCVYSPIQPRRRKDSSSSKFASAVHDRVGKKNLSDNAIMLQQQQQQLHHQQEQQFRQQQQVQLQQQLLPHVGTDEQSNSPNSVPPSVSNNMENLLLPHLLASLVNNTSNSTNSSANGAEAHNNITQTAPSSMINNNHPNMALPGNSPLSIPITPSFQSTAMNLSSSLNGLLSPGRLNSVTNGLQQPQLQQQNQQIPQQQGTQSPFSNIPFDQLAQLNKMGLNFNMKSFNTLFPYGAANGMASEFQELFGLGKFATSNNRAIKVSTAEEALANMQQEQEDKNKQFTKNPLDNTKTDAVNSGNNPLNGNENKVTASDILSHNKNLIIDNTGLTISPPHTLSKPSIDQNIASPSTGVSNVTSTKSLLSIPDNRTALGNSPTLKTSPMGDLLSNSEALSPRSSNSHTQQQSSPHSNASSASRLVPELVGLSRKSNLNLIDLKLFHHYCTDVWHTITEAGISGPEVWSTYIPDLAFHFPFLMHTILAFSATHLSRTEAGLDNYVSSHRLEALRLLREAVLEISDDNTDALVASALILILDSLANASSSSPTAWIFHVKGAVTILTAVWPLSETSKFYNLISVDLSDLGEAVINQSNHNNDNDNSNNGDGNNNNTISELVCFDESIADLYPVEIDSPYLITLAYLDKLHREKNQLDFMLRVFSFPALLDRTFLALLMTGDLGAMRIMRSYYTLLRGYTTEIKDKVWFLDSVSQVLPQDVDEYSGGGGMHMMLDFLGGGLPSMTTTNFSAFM
Method in brief: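 Each ungapped eight-base word and its reverse complement, pooled, received an E-score from the Universal PBM Analysis Suite. Underlying scans, normalised with masliner, recorded fluorescent anti-GST bound to GST-tagged yeast transcription factors. These were applied at about 100-200 nM to universal all-10-mer Agilent arrays double-stranded by primer extension.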

Sequence | PBM E-score
CCTAGGAC | -0.265
CCCCTCAC | -0.215
GCTTCTGA | 0.0041
GGAACTTA | 0.0614
AGACATGA | -0.176
AAGAGCGT | 0.0857
GCTACGCA | 0.182
ATTCACAC | -0.0769
AAGATAGG | -0.191
AGCATATG | -0.135
AAGGCCCG | 0.0655
ATTGGGGC | -0.307
ACAAATCG | -0.119
ATCAACAG | -0.198
AGATAGAA | -0.206
CTTATCGA | 0.00954
TAAACCCA | 0.0155
CATGAGGC | -0.23
GTCTATAA | 0.0932
ACACTATA | -0.122
AGCTCCAT | -0.161
GGTATATA | 0.168

Sequence | PBM E-score
CTCCGTGC | -0.0935
ACAGGGAC | 0.0524
TGGGAGAA | -0.323
ATCAGCCG | 0.0208
ACATCCGC | 0.0834
ACAGGAGA | 0.0857
CATCCGAC | 0.0316
ACAGGATG | -0.0609
ACTCCCAG | -0.149
ATAAGGAA | -0.0638
GGGATTAA | -0.0253
AGAAATCT | 0.0637
GACATGCC | -0.139
GTCATCTA | 0.0382
AGCCCTAC | 0.0141
GTGTTGCA | -0.0518
CTATTAAC | 0.107
CAATAGCG | -0.0948
CGCTGTAA | -0.0186
ACGAACAT | 0.386
ACACATTG | -0.211
TTATACAA | 0.117

Sequence | PBM E-score
ATTGACTG | -0.0411
ATTTTCGG | 0.176
CATCTCCA | -0.238
CCGGGACG | -0.345
ACTCCCAT | -0.132
GGCCTCCC | -0.0791
CTTCTGGA | -0.24
AGAATTCA | -0.0502
TGCTTCCA | -0.219
AGGGCCAG | -0.311
ACTGCAGT | -0.178
ACGCGAGG | 0.295
AAGCGGTA | 0.145
CCTCTATC | -0.0639
CTCATCAG | -0.0824
GCTTCACC | -0.0546
AGGATTTA | -0.0133
AGGACCGA | 0.242
CAGCGTGA | 0.0291
TCTCCCAA | -0.297
ATGTTTAG | 0.0546
AGTGTCAT | -0.0584

Sequence | PBM E-score
AAGATAAA | -0.0228
AGTGTGGA | -0.298
ATACCCAC | -0.0951
ATTCGACG | 0.0856
TATTCAAA | 0.0408
GACGAAAC | 0.287
ACATTCCC | -0.0494
ACAGATGT | -0.102
GCGCGCGA | 0.217
AGTCGACT | -0.0931
ACTTGGAG | -0.166
AGGTTTGC | -0.153
ACTATGGC | -0.187
GGTGCGCA | 0.07
CCGCCGCC | -0.097
AATTGGAG | -0.133
GCAAGCAA | 0.0313
CAAATTTA | 0.00623
CATGCGAC | 0.178
GAGCACAA | -0.016
